The values below come from ChEMBL document CHEMBL5532667 (J Med Chem, 2024).

One may read the half-life as the time needed for the level to fall by half in the phase considered. A high value points to slow loss. In general, microsomal CLint refers to the rate of metabolic loss divided by the concentration. Low readings indicate slow turnover, high ones rapid turnover. As a reminder, the AUC(0-t) is exposure summed from dosing to a finite time, without extrapolation to infinity. Lower therefore signals less exposure. For orientation: Vd means a proportionality between amount in the body and measured concentration, not a real space. Low readings indicate little distribution into tissue, high ones wide distribution into tissue. In general, clearance refers to a measure of how efficiently the substance is removed, as volume per time. Read a high clearance as a high capacity for elimination. Broadly, the IC50 is the concentration at which inhibition is half-maximal. Low readings indicate greater potency, high ones weaker potency.

Values after ≈ are worked out from the molar mass of the structure shown.

The nature of data set [1]: in vitro. Conditions: mouse, microsomes.
Data set [2] in a line: in vitro. Conditions: mouse, microsomes. The source holds these as a separate data set.
Data set [3] in a line: in vitro. Conditions: human, microsomes.
The nature of data set [4]: in vitro. Conditions: human, microsomes. The source holds these as a separate data set.
Data set [5] is described as follows: in vivo. Conditions: C57BL/6, mouse, iv, 1 mg/kg.
A short description of data set [6]: in vivo. Conditions: C57BL/6, mouse, iv, 1 mg/kg. This is another data set of the same source.
The nature of data set [7]: in vivo. Conditions: C57BL/6, mouse, iv, 1 mg/kg. The source holds these as a separate data set.
Data set [8] in a line: in vivo. Conditions: C57BL/6, mouse, iv, 1 mg/kg. This is another data set of the same source.
The nature of data set [9]: in vivo. Conditions: C57BL/6, mouse, iv, 1 mg/kg. This is another data set of the same source.
Data set [10] is described as follows: in vivo. Conditions: C57BL/6, mouse, brain, iv, 1 mg/kg.
Data set [11] can be described thus: in vitro. Conditions: mouse, nih3t3.
The subject of another data set is NIH3T3. Nature of the data set: cells. Conditions: Mus musculus, BALB/c, NIH3T3, light or radiation study.

Take `C[C@](O)(CN1CCN(c2ccc(F)cc2)CC1)C(=O)Nc1ccc(C#N)c(C(F)(F)F)c1`: the half-life at 1 h, 1 µM was found to be 20.1 min in the data set “in vitro [1]” and 9 min in “in vitro [4]”. Also, the microsomal CLint at 1 h, 1 µM worked out at 69 µL/min/mg in “in vitro [2]” and 154 µL/min/mg in the data set “in vitro [3]”.
In “in vivo [5]”, `C[C@](O)(CN1CC2CC(C1)N2c1ccc(C#N)cc1)C(=O)Nc1ccc(C#N)c(C(F)(F)F)c1` registered an AUC(0-t) at 24 h of 661 ng·h/mL. In the data set “in vivo [6]”, this molecule had a distribution volume (Vd) at 24 h of 1.14 L/kg. Also, the clearance at 24 h in the data set “in vivo [7]” was 35.2 mL/min/kg.
In the case of `C[C@](O)(CN1CC2CCC(C1)N2c1ccc(C#N)cc1)C(=O)Nc1ccc(C#N)c(C(F)(F)F)c1`, the AUC(0-t) at 24 h in the data set “in vivo [5]” worked out at 1470 ng·h/mL. In “in vivo [6]”, the Vd at 24 h stood at 2.64 L/kg. The half-life at 1 h, 1 µM in the data set “in vitro [1]” is 40 min; in “in vitro [4]”, 16.9 min. In the data set “in vivo [8]”, this molecule had a half-life at 24 h of 241 min. Besides, the C0 at 24 h in the data set “in vivo [9]” worked out at 1240 ng/mL. Also, the clearance at 24 h in “in vivo [7]” amounted to 11 mL/min/kg. In addition, the microsomal CLint at 1 h, 1 µM in “in vitro [2]” amounted to 34.6 µL/min/mg; in “in vitro [3]”, 82.2 µL/min/mg.
As to `C[C@](O)(CN1CCN(c2cnc(C#N)nc2)CC1)C(=O)Nc1ccc(C#N)c(C(F)(F)F)c1`, in the data set “in vivo [5]”, the AUC(0-t) at 24 h came out at 1280 ng·h/mL. In the data set “in vivo [6]”, this molecule gave a Vd at 24 h of 3.33 L/kg. The molecule further had a Kp at 24 h in “in vivo [10]” of 0.15. Also, the half-life at 1 h, 1 µM in the data set “in vitro [1]” amounted to 25.6 min; in the data set “in vitro [4]”, 12.1 min. Further, the half-life at 24 h in “in vivo [8]” was 232 min. For the same molecule, the C0 at 24 h in “in vivo [9]” worked out at 884 ng/mL. Besides, in the data set “in vivo [7]”, the clearance at 24 h was determined as 13.3 mL/min/kg. In addition, the microsomal CLint at 1 h, 1 µM in “in vitro [2]” came out at 54.2 µL/min/mg; in “in vitro [3]” it was 114 µL/min/mg.
Consider `CC/C(=C(\c1ccccc1)c1ccc(OCCN(C)C)cc1)c1ccccc1` [TAMOXIFEN], for which, in the data set “in vitro [11]”, the IC50 at 1 h worked out at 13 µg/mL (≈ 35.1 µM). The molecule further had an IC50 with NIH3T3 of 10.7 µg/mL (≈ 28.7 µM).
